We go through 41 compounds from ChEMBL document CHEMBL5308541, “MAIP: An Open-Source Tool to Enrich High-Throughput Screening Output and Identify Novel, Druglike Molecules with Antimalarial Activity” (ACS Med Chem Lett, 2023).

Out of some 150,000 compounds screened, about 540 (0.36%) showed an effect of 50% or more. The list shows a part of the results.

As usually defined, the % Inhibition is the relative decrease from the control value, in per cent.

For the experiment, the system named is Plasmodium falciparum. The experiment in a line: Primary screen in NF54 nanoGlo assay, in single point, at 2uM, 72h; a lower Z score goes with more inhibition. It counts as functional, Erythrocyte. The settings on record: timepoint 72 hour.
Consider `Cc1ccc(Nc2nc(NCCN3CCOCC3)nc3nccnc23)c(C)c1`, for which the “% Inhibition” value is given as -1% and the Z score is on record as 0.21.
The corresponding values for `COc1ccc(CNCC2CCN(C(C)=O)CC2)cc1OCCN1CCOCC1` are -4% and 0.66.
On to `CO[C@@H](C)c1cccc(NC(=O)C(=O)Nc2ccc3[nH]ccc3c2)c1`, for which the “% Inhibition” value is 6% and the Z score is recorded as -0.85.
Regarding `CO[C@H]1C[C@H](NC(=O)Nc2ccc(Oc3cccc(S(C)(=O)=O)c3)cc2)C1`, the “% Inhibition” value is given as -8% and the Z score is 1.44.
Regarding `NC(=O)c1cccnc1N1CCN(c2ncnc3[nH]ccc23)CC1`, the “% Inhibition” value worked out at 2% and the Z score was -0.28.
As to `O=C(NCCN1CCC[C@H](c2ccccc2)C1)N1CCN(c2ccncc2)CC1`, the “% Inhibition” value was 12% and the Z score is -2.14.
Taken in the same sequence, the figures for `Cn1cc([C@H]2CCCN(S(=O)(=O)c3c(F)cccc3F)C2)cn1` were 0% and -0.07.
For the compound `Fc1cccc(-c2cnc(C(F)(F)F)nc2C2CCN(Cc3nc4ccccc4[nH]3)CC2)c1`, the “% Inhibition” value is recorded as -3% and the Z score worked out at 0.51.
As to `CCC(CC)(CNC(=O)OC(C)(C)C)NCc1cccc(COC)c1`, the “% Inhibition” value came to 7% and the Z score is given as -1.43.
For `CCCCOc1cc(F)ccc1-c1ccc(N(C)C)nn1`, the “% Inhibition” value is recorded as -11% and the Z score stood at 1.92.
For `CN(C)[C@@H](C(=O)NCCCNc1ncccn1)c1cc(Cl)cc(Cl)c1`, the “% Inhibition” value is listed as -5% and the Z score is recorded as 0.82.
Consider `c1ccc2c(c1)CN(c1ncnc3[nH]ccc13)CC1(CCOCC1)O2`, for which the “% Inhibition” value is 25% and the Z score was -4.48.
Take `Cc1nn(C)c2nc(-c3ccccn3)nc(N[C@H]3CC[C@@H](N)CC3)c12`: the “% Inhibition” value is -5% and the Z score was 0.97.
Taken in the same sequence, the figures for `CCOc1ccc2nc(CN3CCC(O)(c4cccnc4)CC3)ccc2c1` were 1% and -0.2.
The corresponding values for `CCc1c(-c2cccc(C(=O)NC[C@@H]3CCCN3)c2)cnn1C` are 2% and -0.53.
As for `N#Cc1cnc(NCCCN2CCC[C@H](O)C2)nc1N`, the “% Inhibition” value stood at 9% and the Z score is -1.32.
Taken in the same sequence, the figures for `Cn1cccc1-c1cc(C(=O)NC[C@@H](c2cccnc2)N2CCCCC2)[nH]n1` were -4% and 0.54.
Taken in the same sequence, the figures for `CN1C(=O)N(CN2CCCCC2)C2C1N(C)C(=O)N2CN1CCCCC1` (configuration not stated) were -16% and 2.8.
For `COc1ccnc(CN2CCC(N3CCC[C@H](C(=O)N4CCCC4)C3)CC2)c1OC`, the “% Inhibition” value is -5% and the Z score is given as 0.87.
Consider `N#Cc1ccc(N2CCC(Nc3ccncc3C(N)=O)CC2)nc1`, for which the “% Inhibition” value came to 2% and the Z score is recorded as -0.42.
Taken in the same sequence, the figures for `COCc1nnc(-c2ccc(Cl)cc2OC)[nH]1` were -13% and 1.94.
The corresponding values for `C[C@@H](c1ccc(-c2cnn(CCO)c2)cc1)N1CCCCC1` are 1% and -0.17.
For `OC[C@H]1CCCCN1CCNc1ncnc2[nH]ccc12`, the “% Inhibition” value is reported as -10% and the Z score is on record as 2.16.
`Cc1cc(NC2COCC2N2CCOCC2)nc(-c2ccccc2)n1` (configuration not stated): the “% Inhibition” value was 1% and the Z score was -0.1.
Regarding `Cc1cnccc1NCCNCc1ccc(OC(C)C)c(Cl)c1`, the “% Inhibition” value is listed as 79% and the Z score is reported as -17.03.
As to `C[C@H](NC(=O)c1cnc(-c2ccncc2)s1)C1CCN(CC(F)(F)F)CC1`, the “% Inhibition” value is on record as -10% and the Z score is recorded as 1.99.
Taken in the same sequence, the figures for `COCC1(C(=O)N2CCc3c(nc(N)[nH]c3=O)C2)CCC1` were 1% and -0.18.
For `O=S(=O)(Nc1ccc(Nc2cc(-n3ccnc3)ncn2)cc1)c1ccc2ccccc2c1`, the “% Inhibition” value is 16% and the Z score is -2.46.
Consider `COC1CC(C(=O)N2CCC(c3c(-c4ccccc4)[nH]c4ccccc34)CC2)CCC1O` (configuration not stated), for which the “% Inhibition” value is given as -6% and the Z score is listed as 1.06.
Take `CCN(CC)CCCN(CC)c1ncnc2[nH]ccc12`: the “% Inhibition” value is -8% and the Z score is 1.17.
Consider `CC1CN(Cc2ccc3cn[nH]c3c2)CCN1CC(O)c1ccccc1` (configuration not stated), for which the “% Inhibition” value was -9% and the Z score is 1.86.
Consider `C[C@@H](c1ccc(-c2ccc3cc[nH]c(=O)c3c2)cc1)N1CCOCC1`, for which the “% Inhibition” value is recorded as -6% and the Z score stood at 1.35.
The corresponding values for `C[C@@H](CN1CCN(C)CC1)N1CCC2(CCN(C)C2)CC1` are 0% and 0.08.
For the compound `Cc1cc(N2CCCN(C[C@H]3Cc4c(C)nc(C)nc4O3)CC2)ccn1`, the “% Inhibition” value is 6% and the Z score is on record as -0.97.
As to `Brc1cccc(NCCNC2CCN(Cc3cccnc3)CC2)c1`, the “% Inhibition” value worked out at 28% and the Z score is -4.96.
Consider `CCNc1ncc(C(=O)NCCN2CCC[C@H](c3ccccc3)C2)cn1`, for which the “% Inhibition” value was -12% and the Z score is listed as 2.39.
For the compound `OC[C@H]1CC[C@H](NCc2ccc3[nH]cnc3c2)CC1`, the “% Inhibition” value came to 10% and the Z score is recorded as -1.75.
For the compound `COc1nc2c(cc1CNC(=O)CC(C)C)C(=O)N(CCc1ccccn1)C2`, the “% Inhibition” value was -9% and the Z score is 1.65.
Taken in the same sequence, the figures for `COCc1nc(CC(=O)Nc2cc(Cl)c(O)c(Cl)c2)cs1` were -3% and 0.52.
Turning to `Cc1cc(-c2ccc(OCC(=O)NCc3nc4ccccc4[nH]3)c(CN3CCOCC3)c2)c2ccccc2n1`, the “% Inhibition” value worked out at 2% and the Z score is on record as -0.33.
Take `O=C(NC[C@H](N1CCNCC1)C(F)(F)F)c1ccc2c(c1)CCNCC2`: the “% Inhibition” value is given as 3% and the Z score is listed as -0.56.
